Data: publication PMC4336329 (PLoS ONE, 2015)
The whole screen tested about 310,000 compounds, of which about 2,200 (0.71%) showed an effect of 50% or more. The effect is printed as a negative number. This is one part of the list.

target: human ether-à-go-go-related gene (hERG) potassium channel (human, UniProt Q12809); assay: primary screen, population patch clamp on CHO cells stably expressing hERG
Sequence (Q12809 whole entry, looked up): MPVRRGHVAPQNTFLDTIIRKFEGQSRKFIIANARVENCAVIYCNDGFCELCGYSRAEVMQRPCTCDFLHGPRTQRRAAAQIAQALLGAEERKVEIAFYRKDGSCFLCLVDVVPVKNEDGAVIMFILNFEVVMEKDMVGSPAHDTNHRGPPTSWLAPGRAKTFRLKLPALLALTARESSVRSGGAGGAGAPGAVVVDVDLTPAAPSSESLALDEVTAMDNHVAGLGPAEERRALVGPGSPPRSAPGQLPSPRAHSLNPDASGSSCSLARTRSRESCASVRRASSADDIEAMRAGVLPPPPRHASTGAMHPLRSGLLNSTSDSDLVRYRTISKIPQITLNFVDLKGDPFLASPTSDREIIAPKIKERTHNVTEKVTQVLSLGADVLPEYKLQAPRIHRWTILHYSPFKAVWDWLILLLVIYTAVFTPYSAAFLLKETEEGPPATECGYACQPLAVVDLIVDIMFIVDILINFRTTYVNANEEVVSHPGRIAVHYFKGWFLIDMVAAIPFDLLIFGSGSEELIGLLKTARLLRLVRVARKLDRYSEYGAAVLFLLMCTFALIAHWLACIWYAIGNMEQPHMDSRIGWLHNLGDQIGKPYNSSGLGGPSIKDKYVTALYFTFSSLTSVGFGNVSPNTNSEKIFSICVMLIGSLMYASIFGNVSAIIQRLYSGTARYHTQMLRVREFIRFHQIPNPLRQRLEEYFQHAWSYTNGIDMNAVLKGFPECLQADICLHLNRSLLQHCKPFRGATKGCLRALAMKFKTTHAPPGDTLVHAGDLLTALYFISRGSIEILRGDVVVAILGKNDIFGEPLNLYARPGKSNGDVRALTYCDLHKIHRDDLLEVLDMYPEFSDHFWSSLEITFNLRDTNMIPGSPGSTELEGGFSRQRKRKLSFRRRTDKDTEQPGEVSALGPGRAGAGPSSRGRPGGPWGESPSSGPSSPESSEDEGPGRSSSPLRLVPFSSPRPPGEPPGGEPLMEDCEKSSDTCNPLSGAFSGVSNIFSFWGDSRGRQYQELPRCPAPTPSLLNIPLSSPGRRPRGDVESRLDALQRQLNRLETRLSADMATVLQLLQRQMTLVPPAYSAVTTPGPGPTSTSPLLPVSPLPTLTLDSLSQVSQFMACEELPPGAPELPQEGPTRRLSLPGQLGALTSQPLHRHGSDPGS

SMILES | hERG current change (%, negative = inhibition) at 1uM
O=C(CN1C(=O)NC2(CCc3ccccc32)C1=O)c1ccc(Cl)cc1 (centres unmarked) | 0.347%
c1ccc(N2CCN(c3cnc4ccccc4n3)CC2)cc1 | 1.57%
O=c1[nH]c(=O)n(CCc2ccccc2)c(O)c1C=NCCCn1ccnc1 | 3.79%
COC(=O)c1cc(C(=O)NC(C)(C)CC(C)(C)C)cc([N+](=O)[O-])c1 | 1.99%
COc1ccc(OC)c(NC(=O)C(CC(=O)O)Cc2ccc(Cl)cc2)c1 (centres unmarked) | 10.8%
COC(=O)Cc1[nH]c(=S)[nH]c1C(=O)OC | 9.65%
COC(C/C=C\[C@@H](O)[C@H](C)OCc1ccccc1)OC | 24%
CCCCn1c(N)c(N(CC)C(=O)c2ccc(C)cc2)c(=O)[nH]c1=O | 17.8%
CN(C)c1ccc(C(C(=O)NCc2ccccc2)N(Cc2ccco2)C(=O)c2snc(C(N)=O)c2N)cc1 (centres unmarked) | 8.48%
COc1ccc(OC)c(NC(=O)NNC(=O)c2cc3occc3[nH]2)c1 | 19.5%
CCOc1ccccc1N1C(=O)c2ccc(C(=O)Nc3cccnc3)cc2C1=O | 5.52%
Cc1ccccc1CC(=O)NC1CCN(C)CC1 | 11.5%
O=C(NCCN1CCOCC1)/C(=C\c1ccc(Br)cc1)NC(=O)c1cccs1 | -54%
COc1cccc(-c2csc(N3CCN(CC(=O)Nc4ccc5c(c4)OCO5)CC3)n2)c1 | 5.4%
Cc1[nH]c(=O)[nH]c(=O)c1S(=O)(=O)N1CCCC(C(=O)NCCc2ccc(Cl)cc2)C1 (centres unmarked) | 2.35%
COc1cccc(Oc2ncnc(N)c2[N+](=O)[O-])c1 | 15.2%
O=C(CN1CCN(S(=O)(=O)c2cc(C(F)(F)F)ccc2Cl)CC1)N1CCc2ccccc2C1 | 7.11%
Nc1ccc(N2CCN(c3ccccc3)CC2)c(F)c1 | 6.04%
CCN(CC)CCN(CC(=O)N(C1CCCCC1)C1CCCCC1)C(=O)c1ccco1.O=C(O)C(=O)O | 17.1%
COc1cc(C(=O)OCC(=O)Nc2ccc(SC(F)F)cc2)cc(OC)c1OC | 10.8%
O=C(CCc1ccccc1)NNC(=S)NC(=O)c1ccccc1 | -2.1%
OC1CCCCC1Sc1nc2ccccc2s1 (centres unmarked) | 9.95%
COc1ccc(Cl)cc1NC(=O)CN(C)C(=O)Cn1c(=O)oc2ccccc21 | 3.36%

SMILES | hERG current change (%, negative = inhibition) at 1uM
COc1ccc(Cn2nnnc2C(CC(C)C)N2CCN(c3ccccc3)CC2)cc1 (centres unmarked) | 3.21%
COc1ccccc1N(CC(=O)N1CCCC1)S(=O)(=O)c1ccc(C)cc1 | 13.1%
O=C(Nc1cccc(OC(F)(F)F)c1)c1ccc(Br)o1 | -12.9%
Cl.N[C@@H](CCC(=O)O)C(=O)O | 10.8%
Oc1ccccc1/C=N/N1CCCCC1 | 8.95%
O=C(NCc1ccc(F)cc1)C1CCN(S(=O)(=O)N2CCCCC2)CC1 | -1.55%
Cc1cc(C)cc(-c2nc(-c3ccncc3)no2)c1 | 15%
CC(=O)c1sc(-c2ccccc2Cl)nc1C | 8.68%
Cc1ccc(OC(=O)Cn2c(C(F)(F)F)nc3ccccc32)cc1 | 1.96%
O=c1c2ccccc2oc2cc(C#CC3(O)CCCCC3)ccc12 | 15.9%
CCOC(=O)C1=C(C)NC(=S)N(C(C)=O)C1c1ccc(OC)c(OC)c1 (centres unmarked) | 11.7%
C#CC(C)OC(=O)Nc1cnccc1C(F)(F)F (centres unmarked) | 9.17%
Cc1nc(C/C(=N\Nc2ccccc2)c2ccc(O)cc2O)cs1 | 2.56%
Cc1cccc(CSC2=NCCN2C(=O)c2ccc(S(=O)(=O)N(C)C)cc2)c1 | 8%
COc1ccc(NC(=O)CN2CCN(S(=O)(=O)c3ccc(C(C)C)cc3)CC2)cc1OC | -6.98%
Cc1cc2cc(CNC(=O)Nc3cccc(Cl)c3)ccc2n1C | 17%
COc1ccc(C(=O)N/C(=C\c2ccco2)C(=O)NCCCn2ccnc2)cc1 | -0.883%
NC(=O)NN=C1C2CCCC1C(c1ccccc1)NC2c1ccccc1 (centres unmarked) | 11.9%
COc1cccc(CN(C)C(=O)[C@@H](NC(=O)c2ccc(C)cc2)C(C)C)c1 | 1.72%
CN(C(=O)CSc1nnc(-c2ccncc2)n1-c1ccccc1)C1CCS(=O)(=O)C1 (centres unmarked) | 13.7%
CC(C)(C)CN1CCNC(=O)C1CC(=O)NCCc1cnn(-c2ccccc2)c1 (centres unmarked) | 5.53%
Cc1ccc(/C=C(\C#N)c2nn(-c3ccccc3)c(N)c2C#N)cc1 | 7.54%
CCN(CC)CCP(=O)(c1ccccc1)c1ccccc1 | -0.32%

SMILES | hERG current change (%, negative = inhibition) at 1uM
COc1ccc(CN(C)C(=O)c2cccc(Oc3ccccc3)c2)c(OC)c1OC | 9.3%
COc1ccc(OCC(O)CNC(=O)Nc2cc(F)ccc2C)cc1 (centres unmarked) | 7.6%
Cc1ccc(-n2c(C)nnc2SCC(=O)N2CCOCC2)cc1 | 16.1%
O=C(COC(=O)c1ccc2ncsc2c1)Nc1cc([N+](=O)[O-])ccc1Cl | 7.27%
COc1ccc(-c2nc(C(=O)O)cs2)cc1OC | 2.58%
CCOC(=O)N1CCN(C(=O)c2ccc(Cn3c(=S)[nH]c4cc(C(=O)OC)ccc4c3=O)cc2)CC1 | 15.6%
O=C(NCc1ccc(Cl)cc1)C(=O)NCC(c1ccco1)N1CCOCC1 (centres unmarked) | -0.387%
COc1ccc(CCNC(=O)C2CCCN(S(=O)(=O)c3ccccc3)C2)cc1 (centres unmarked) | 5.33%
CCc1ccc(NC(=O)c2noc3c2CCCCC3)cc1 | 12.2%
O=C(O)C(=O)O.O=C(c1ccccc1F)N1CCN(Cc2ccc3c(c2)OCO3)CC1 | 13%
CCN1CNC(=S)N(c2ccccc2C)C1 | 13.9%
O=C1C(Cl)=C(Nc2ccc(O)cc2)C(=O)c2ccccc21 | 15.1%
CC(=O)Nc1nonc1NC(=O)CSc1ccccn1 | 8.05%
Cc1ccc(Cn2cc(/C=N/Nc3ccc([N+](=O)[O-])cn3)c3ccccc32)cc1 | 0.803%
CN(c1cccc(Cl)c1)S(=O)(=O)c1cccc(C(=O)Nc2nc3ccccc3[nH]2)c1 | 6.67%
CCn1nnc(NC(=O)COc2cc(C)ccc2C(C)C)n1 | 2.62%
Cc1ccc(CNC(=O)c2cc3cc(Br)ccc3oc2=N)cc1 | 8.2%
Cc1ccc(NC(=S)N(CCCN2CCCC2)Cc2cccn2Cc2ccc(Cl)cc2)cc1 | 7.04%
COc1ccc(OC)c(S(=O)(=O)NC2CCCCC2)c1 | -6.21%
CCCOC1CCCN(C(=O)CCc2nnc(Cc3cccc(C)c3)o2)C1 (centres unmarked) | 15.5%
OCc1ncccc1O | 8.62%
COc1cccc(/C=C2\Oc3cc(OCC(=O)N4CCC[C@H]4C(=O)O)ccc3C2=O)c1 | 3.77%
COc1ccccc1C/C(N)=N/OC(=O)c1cccc([N+](=O)[O-])c1 | 4.26%

SMILES | hERG current change (%, negative = inhibition) at 1uM
CCCCc1nnc(NC(=O)c2ccc3[nH]c(=O)c(=O)[nH]c3c2)s1 | -4.08%
CC(C)NC(=O)C(=O)NCCN1CCN(C(=O)c2ccc(C(C)(C)C)cc2)CC1 | 5.85%
Cc1cccc(S(=O)(=O)NCC2CCCO2)c1 (centres unmarked) | 8.2%
CCCCCn1nc(C(=O)N(CCOC)c2c(N)n(CCCC)c(=O)[nH]c2=O)c2ccccc2c1=O | 1.15%
Cc1cccc(-c2noc(CCC(=O)NCc3ccccc3)n2)c1 | 3.69%
O=C(NNC(=O)C1CC1)c1cc(Cl)nc2ccccc12 | 10.7%
O=C(NCc1ccccc1)C1CCC(=O)N(CCCN2CCCC2=O)C1 (centres unmarked) | 11.5%
CN1CCN(Cc2cn[nH]c2-c2ccc(F)cc2F)[C@@H](c2ccccc2)C1 | 3.92%
CCOC(=O)CNS(=O)(=O)c1ccc(C(=O)O)cc1 | 8.84%
O=C(O)c1ccccc1Nc1ccnc(C(F)(F)F)c1 | 13.9%
C=CCNS(=O)(=O)c1ccc(OCC(=O)OC)cc1 | 4.49%
Cc1ccc(C(=O)N2CC3(C(C)C)CN(C(=O)c4ccc(C)cc4)CC(C(C)C)(C2)C3=O)cc1 | -0.155%
CCC(=O)Oc1ccc2oc(=O)cc(C)c2c1 | 12.9%
O=C(c1cccc([N+](=O)[O-])c1)N1CCN(c2ccccn2)CC1 | 5.24%
O=C(O)c1ccc(N2C(=O)c3cccc4c(C(=O)O)ccc(c34)C2=O)cc1 | 20.4%
COC(=O)[C@H]1[C@@H](C)N(CCc2cc(OC)c(OC)c(OC)c2)C(=O)N[C@H]1c1ccccc1 | 5.47%
CC(C)c1nc(CNC(=O)CC2C(=O)NCCN2Cc2cccc(F)c2F)cs1 (centres unmarked) | 0.765%
Brc1ccc(-c2nn3c(-c4ccco4)nnc3s2)o1 | -1.41%
CCOC(=O)C1CCN(C(=O)C2(NC(=O)Nc3ccccc3Cl)CCCCC2)CC1 | -3.58%
O=C(Nc1ccc(F)cc1F)C1CCN(C(=O)c2ccc(Br)cc2)CC1 | 6.25%
